Patent US20190055314A1 (ADAGENE, published 2019)

Experiments:
[1] = biological target: T1, Hu_CRD2-CRD3 (human, UniProt Q07011 46-118, limits assumed); experiment: flow cytometry, yeast display [Cont.]
T1 construct: also called two CRD units (CRD2-CRD3) of human CD137

[2] = biological target: T2, Hu_CRD1-CRD2 (human, UniProt Q07011 24-86, limits assumed); experiment: flow cytometry, yeast display [Cont.]
T2 construct: also called two CRD units (CRD1-CRD2) of human CD137

[3] = biological target: T3, Hu_CRD3 (human, limits assumed); experiment: flow cytometry, yeast display [Cont.]
T3 construct: also called human CD137 CRD3
T3 chain: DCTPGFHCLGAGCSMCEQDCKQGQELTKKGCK

[4] = biological target: T4, Hu_CRD4 (human, UniProt Q07011 119-159, limits assumed); experiment: flow cytometry, yeast display [Cont.]
T4 construct: also called human CD137 CRD4
T4 chain: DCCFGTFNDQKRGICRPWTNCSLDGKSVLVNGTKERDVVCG

[5] = biological target: T5, Hu_CRD3-CRD4 (human, UniProt Q07011 87-159, limits assumed); experiment: flow cytometry, yeast display [Cont.]
T5 construct: also called two CRD units (CRD3-CRD4) of human CD137

[6] = biological target: T6, Hu_CRD2-CRD3-CRD4 (human, UniProt Q07011 46-159, limits assumed); experiment: flow cytometry, yeast display [Cont.]
T6 construct: also called three CRD units (CRD2-CRD3-CRD4) of human CD137

[7] = biological target: T7, Hu_CRD1-CRD2-CRD3 (human, UniProt Q07011 24-118, limits assumed); experiment: flow cytometry, yeast display [Cont.]
T7 construct: also called three CRD units (CRD1-CRD2-CRD3) of human CD137

[8] = biological target: T8, Hu_F72A (human, UniProt Q07011 18-255); experiment: flow cytometry, HEK293F
T8 construct: On HEK293F; also called human CD137 F72A

[9] = biological target: T9, Hu_F36A (human, UniProt Q07011 18-255); experiment: flow cytometry, HEK293F
T9 construct: On HEK293F; also called human CD137 F36A

[10] = biological target: T10, Hu_F53A (human, UniProt Q07011 18-255); experiment: flow cytometry, HEK293F
T10 construct: On HEK293F; also called human CD137 F53A

[11] = biological target: T11, Hu_P49A (human, UniProt Q07011 18-255); experiment: flow cytometry, HEK293F
T11 construct: On HEK293F; also called human CD137 P49A

[12] = biological target: T12, Hu_P32A (human, UniProt Q07011 18-255); experiment: flow cytometry, HEK293F
T12 construct: On HEK293F; also called human CD137 P32A

[13] = biological target: T13, Hu_F92A (human, UniProt Q07011 18-255); experiment: flow cytometry, HEK293F
T13 construct: On HEK293F; also called human CD137 F92A

[14] = biological target: T14, Hu_N83A (human, UniProt Q07011 18-255); experiment: flow cytometry, HEK293F
T14 construct: On HEK293F; also called human CD137 N83A

[15] = biological target: T15, Hu_T35A (human, UniProt Q07011 18-255); experiment: flow cytometry, HEK293F
T15 construct: On HEK293F; also called human CD137 T35A

B1: human CD137 ligand (ligand)
chain: not shown
modifications: biotinylated in Example 6
notes: also called HuCD137L; biotinylated CD137L
% in upper right quadrant [1]: 0.23% | Mean [1]: 11500 | % in upper right quadrant [2]: 0.22% | Mean [2]: 21900 | % in upper right quadrant [3]: 0.27% | Mean [3]: 14200 | % in upper right quadrant [4]: 0.12% | Mean [4]: 9510 | % in upper right quadrant [5]: 0.27% | Mean [5]: 23700 | % in upper right quadrant [6]: 0.39% | Mean [6]: 10500 | % in upper right quadrant [7]: 27.3% | Mean [7]: 3680 | binding result [8]: no binding | binding result [9]: no binding | binding result [10]: no binding | binding result [11]: no binding | binding result [12]: no binding | binding result [13]: no binding | binding result [14]: no binding | binding result [15]: no binding
